Variants at the floor of the assay are shown more often than the library holds them.
B1: TPR 5TU (parent)
chain: GGAUCUUCUCGAUCUAACAAAAAAGACAAAUCUGCCACAAAGCUUGAGAGCAUCUUCGGAUGCAGAGGCGGCAGCCUUCGGUGGCGCGAUAGCGCCAACGUUCUCAACUAUGACACGCAAAACGCGUGCUCCGUUGAAUGGAGUUUAUCAUG

Variants of: B1
Assay: polymerase ribozyme fitness, log enrichment relative to wild type (log ratio); higher = more active; in vitro selection for triplet polymerase activity
Procedure, shortened: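 Mutant libraries were PCR-built and transcribed for each subunit of a heterodimeric triplet polymerase ribozyme and selected for one round in triplicate at −7 °C, frozen, before gel excision of extended constructs and streptavidin-bead capture. Input and output libraries were Illumina-sequenced, keeping genotypes with ≥10 input reads and ≥1 read per output. Fitness is a logarithmic ratio of genotype to wild-type enrichment, in base 2, using inverse-variance-weighted replicate averages.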

Q: With A29U A40C G46A G67A G81A C85G A113C A137G as the variant, how does the “polymerase ribozyme fitness (log ratio)” value read?
A: ≤ -4.2

Q: Which “polymerase ribozyme fitness (log ratio)” value does the source give for A29U A40C G59U C132G U146G here?
A: ≤ -4.2

Q: Which “polymerase ribozyme fitness (log ratio)” value does the source give for A29U A40C U53A A60C C93A here?
A: ≤ -4.2

Q: With A29U A40G G50C C72U G86A A91C as the variant, how does the “polymerase ribozyme fitness (log ratio)” value read?
A: ≤ -4.2

Q: For A29U A40G U53A U77C C93G A137G G141A, which “polymerase ribozyme fitness (log ratio)” value is on record?
A: ≤ -4.2

Q: For A29U A41C C54A G84A G126U G141A, which “polymerase ribozyme fitness (log ratio)” value is on record?
A: ≤ -4.2

Q: For A29U A41C U61A G67U G86U G92A C93A G133C, which “polymerase ribozyme fitness (log ratio)” value is on record?
A: ≤ -4.2

Q: For A29U A47C A89G C95G C108A G133C A138G, which “polymerase ribozyme fitness (log ratio)” value is on record?
A: ≤ -4.2

Q: For A29U A47C C54U C93G G117U G128U, which “polymerase ribozyme fitness (log ratio)” value is on record?
A: ≤ -4.2

Q: For A29U A47C U55G C87U A98G, which “polymerase ribozyme fitness (log ratio)” value is on record?
A: ≤ -4.2

Q: For A29U A47G C85A C132G, which “polymerase ribozyme fitness (log ratio)” value is on record?
A: ≤ -4.2

Q: With A29U A49C A60U C76U C96A A106U A142C as the variant, how does the “polymerase ribozyme fitness (log ratio)” value read?
A: ≤ -4.2

Q: For A29U A49C G68U A73C A91C C103G, which “polymerase ribozyme fitness (log ratio)” value is on record?
A: ≤ -4.2

Q: With A29U A52C U53A G80A C93G C108U A121C C149G as the variant, how does the “polymerase ribozyme fitness (log ratio)” value read?
A: ≤ -4.2

Q: For A29U A52G U55C U134A, which “polymerase ribozyme fitness (log ratio)” value is on record?
A: ≤ -4.2

Q: Which “polymerase ribozyme fitness (log ratio)” value does the source give for A29U A52U A89G U102G U111C C132U U135A here?
A: ≤ -4.2

Q: With A29U A60C U61A G94C A120G U130G as the variant, how does the “polymerase ribozyme fitness (log ratio)” value read?
A: ≤ -4.2

Q: For A29U A60G G65C G70U C76A U82C C87G G126U, which “polymerase ribozyme fitness (log ratio)” value is on record?
A: ≤ -4.2

Q: Which “polymerase ribozyme fitness (log ratio)” value does the source give for A29U A60G G92C here?
A: ≤ -4.2

Q: For A29U A73G G80A, which “polymerase ribozyme fitness (log ratio)” value is on record?
A: ≤ -4.2

Q: Which “polymerase ribozyme fitness (log ratio)” value does the source give for A29U A73G G80C A122U G133A here?
A: ≤ -4.2

Q: Which “polymerase ribozyme fitness (log ratio)” value does the source give for A29U A89U G94A C116G G141A here?
A: ≤ -4.2

Q: Which “polymerase ribozyme fitness (log ratio)” value does the source give for A29U A91C A120G here?
A: ≤ -4.2

Q: With A29U A91C C96U A97U as the variant, how does the “polymerase ribozyme fitness (log ratio)” value read?
A: ≤ -4.2

Q: For A29U A142G C149U, which “polymerase ribozyme fitness (log ratio)” value is on record?
A: ≤ -4.2

Q: With A29U C32A A41U G71C C85U C87U A98C as the variant, how does the “polymerase ribozyme fitness (log ratio)” value read?
A: ≤ -4.2

Q: Which “polymerase ribozyme fitness (log ratio)” value does the source give for A29U C32G A60G C96A G140C A142C here?
A: ≤ -4.2

Q: For A29U C32G C43U G46A A52G U56A A66G A73G C87G U144A, which “polymerase ribozyme fitness (log ratio)” value is on record?
A: ≤ -4.2

Q: With A29U C32G C79U U130G as the variant, how does the “polymerase ribozyme fitness (log ratio)” value read?
A: ≤ -4.2

Q: Which “polymerase ribozyme fitness (log ratio)” value does the source give for A29U C32G G88C C95G U135C here?
A: ≤ -4.2

Q: Which “polymerase ribozyme fitness (log ratio)” value does the source give for A29U C32U A39U G42A here?
A: ≤ -4.2

Q: For A29U C35U C54U U56A U90A A106C A121U, which “polymerase ribozyme fitness (log ratio)” value is on record?
A: ≤ -4.2

Q: Which “polymerase ribozyme fitness (log ratio)” value does the source give for A29U C35U G48A U61A C96U A106U A122C here?
A: ≤ -4.2

Q: With A29U C36A A47C C118U U146C as the variant, how does the “polymerase ribozyme fitness (log ratio)” value read?
A: ≤ -4.2

Q: Which “polymerase ribozyme fitness (log ratio)” value does the source give for A29U C36A G65C C79A G86A G141C here?
A: ≤ -4.2

Q: For A29U C36A U55A G65C C93G C96G C116U C118A U135G A137G, which “polymerase ribozyme fitness (log ratio)” value is on record?
A: ≤ -4.2

Q: For A29U C36U A64C C69U C95A G141C A142C, which “polymerase ribozyme fitness (log ratio)” value is on record?
A: ≤ -4.2

Q: Which “polymerase ribozyme fitness (log ratio)” value does the source give for A29U C36U G67A C69U C95G G124C A137U here?
A: ≤ -4.2

Q: Which “polymerase ribozyme fitness (log ratio)” value does the source give for A29U C38G A52U here?
A: ≤ -4.2

Q: With A29U C38U C43A G84A C93G U109G as the variant, how does the “polymerase ribozyme fitness (log ratio)” value read?
A: ≤ -4.2

Q: Which “polymerase ribozyme fitness (log ratio)” value does the source give for A29U C38U G46A A60U C95A G126U here?
A: ≤ -4.2

Q: With A29U C43G G58A G86A U90G C105A C149U as the variant, how does the “polymerase ribozyme fitness (log ratio)” value read?
A: ≤ -4.2

Q: For A29U C43U C95A C125A, which “polymerase ribozyme fitness (log ratio)” value is on record?
A: ≤ -4.2

Q: Which “polymerase ribozyme fitness (log ratio)” value does the source give for A29U C43U U45A A110C here?
A: ≤ -4.2

Q: For A29U C51G G58C G71A A91G C95A C103G U151A G152A, which “polymerase ribozyme fitness (log ratio)” value is on record?
A: ≤ -4.2

Q: With A29U C51U G81U C93A G100A as the variant, how does the “polymerase ribozyme fitness (log ratio)” value read?
A: ≤ -4.2

Q: For A29U C54G G84U C85G U134G, which “polymerase ribozyme fitness (log ratio)” value is on record?
A: ≤ -4.2

Q: For A29U C57G G59A A73G C95U C96G C99U G100A G124A C149G, which “polymerase ribozyme fitness (log ratio)” value is on record?
A: ≤ -4.2

Q: With A29U C63G G68A U78G C85U G100A as the variant, how does the “polymerase ribozyme fitness (log ratio)” value read?
A: ≤ -4.2

Q: With A29U C69A G84A G141A as the variant, how does the “polymerase ribozyme fitness (log ratio)” value read?
A: ≤ -4.2

Q: With A29U C69A G84A G143U as the variant, how does the “polymerase ribozyme fitness (log ratio)” value read?
A: ≤ -4.2

Q: With A29U C76A C85A C108U C116A as the variant, how does the “polymerase ribozyme fitness (log ratio)” value read?
A: ≤ -4.2

Q: With A29U C76G G84U C96A A122U U144A as the variant, how does the “polymerase ribozyme fitness (log ratio)” value read?
A: ≤ -4.2

Q: For A29U C76U C93U U101G U130A, which “polymerase ribozyme fitness (log ratio)” value is on record?
A: ≤ -4.2

Q: Which “polymerase ribozyme fitness (log ratio)” value does the source give for A29U C85A here?
A: ≤ -4.2

Q: Which “polymerase ribozyme fitness (log ratio)” value does the source give for A29U C85G C118U here?
A: ≤ -4.2

Q: With A29U C85G C129A G141C as the variant, how does the “polymerase ribozyme fitness (log ratio)” value read?
A: ≤ -4.2

Q: Which “polymerase ribozyme fitness (log ratio)” value does the source give for A29U C85U U139A here?
A: ≤ -4.2

Q: With A29U C87A as the variant, how does the “polymerase ribozyme fitness (log ratio)” value read?
A: ≤ -4.2

Q: With A29U C87A C99G as the variant, how does the “polymerase ribozyme fitness (log ratio)” value read?
A: ≤ -4.2

Q: Which “polymerase ribozyme fitness (log ratio)” value does the source give for A29U C87G here?
A: ≤ -4.2

Q: For A29U C87G C95U C131A G143C, which “polymerase ribozyme fitness (log ratio)” value is on record?
A: ≤ -4.2

Q: With A29U C93G as the variant, how does the “polymerase ribozyme fitness (log ratio)” value read?
A: ≤ -4.2

Q: With A29U C95A as the variant, how does the “polymerase ribozyme fitness (log ratio)” value read?
A: -3.68

Q: Which “polymerase ribozyme fitness (log ratio)” value does the source give for A29U C95A C116U here?
A: ≤ -4.2

Q: With A29U C95U G117A A121U G140U as the variant, how does the “polymerase ribozyme fitness (log ratio)” value read?
A: ≤ -4.2

Q: With A29U C95U U130G as the variant, how does the “polymerase ribozyme fitness (log ratio)” value read?
A: ≤ -4.2

Q: With A29U C96U A107G G117A U130G as the variant, how does the “polymerase ribozyme fitness (log ratio)” value read?
A: ≤ -4.2

Q: Which “polymerase ribozyme fitness (log ratio)” value does the source give for A29U C96U G136U here?
A: ≤ -4.2

Q: For A29U C99U A106G, which “polymerase ribozyme fitness (log ratio)” value is on record?
A: ≤ -4.2

Q: For A29U C114U C123G, which “polymerase ribozyme fitness (log ratio)” value is on record?
A: ≤ -4.2

Q: Which “polymerase ribozyme fitness (log ratio)” value does the source give for A29U C132U here?
A: ≤ -4.2

Q: With A29U G34A U44A A60G A91C as the variant, how does the “polymerase ribozyme fitness (log ratio)” value read?
A: ≤ -4.2

Q: For A29U G34A U56A U61A G117U U139C A150C, which “polymerase ribozyme fitness (log ratio)” value is on record?
A: ≤ -4.2

Q: With A29U G34C A47U C57A as the variant, how does the “polymerase ribozyme fitness (log ratio)” value read?
A: ≤ -4.2

Q: With A29U G34C G48C G80A U82A C105A A115G U151A as the variant, how does the “polymerase ribozyme fitness (log ratio)” value read?
A: ≤ -4.2

Q: Which “polymerase ribozyme fitness (log ratio)” value does the source give for A29U G42A U45A A47G U55G C69G A91U G141U here?
A: ≤ -4.2

Q: With A29U G42C G48U U61A C93U G126A G143U as the variant, how does the “polymerase ribozyme fitness (log ratio)” value read?
A: ≤ -4.2

Q: For A29U G48A U61G G84U C85A C105U G126U, which “polymerase ribozyme fitness (log ratio)” value is on record?
A: ≤ -4.2

Q: Which “polymerase ribozyme fitness (log ratio)” value does the source give for A29U G48U U61G G83C here?
A: ≤ -4.2

Q: For A29U G50C A52C A64C U77C G92C G94A C95A A115C U139G, which “polymerase ribozyme fitness (log ratio)” value is on record?
A: ≤ -4.2

Q: For A29U G50C G81C A89U C114A C118G, which “polymerase ribozyme fitness (log ratio)” value is on record?
A: ≤ -4.2

Q: For A29U G58A G92U C99U G141C, which “polymerase ribozyme fitness (log ratio)” value is on record?
A: ≤ -4.2
